Laboratory results: PubChem BioAssay AID504339 (National Center for Advancing Translational Sciences (NCATS), 2011)
Where “and” joins values, the source holds several entries; their conditions need not be identical. Equal values may be shown once. The whole screen tested about 390,000 compounds, of which about 17,000 (4.4%) were called active. The inconclusive results got no clear call from the source; some entries with a clear call stand among them for comparison. Calls come from the whole dose curve; as a rule, active = well fitted inhibition curve with a large enough effect; inconclusive = small, poorly fitted or top-dose-only effect; inactive = no such curve, though single readings can be large or run the other way. A potency beside an inconclusive call is a rough fit, not a confirmed value.

What follows are molecules tested against Lysine-specific demethylase 4A (Homo sapiens) (UniProt O75164) (assay: qHTS Assay for Inhibitors of JMJD2A-Tudor Domain). Settings: AlphaScreen JMJD2A-Tudor / H3K4me3 peptide binding; series mostly up to 114 µM.
Note: nearly all actives have a fitted effect of over 50% in size.
Potency is the fitted concentration of half-maximal effect; tags give direction and shape of the fitted curve.

UniProt O75164, sequence (O75164 whole entry, looked up, the tested form may be a part): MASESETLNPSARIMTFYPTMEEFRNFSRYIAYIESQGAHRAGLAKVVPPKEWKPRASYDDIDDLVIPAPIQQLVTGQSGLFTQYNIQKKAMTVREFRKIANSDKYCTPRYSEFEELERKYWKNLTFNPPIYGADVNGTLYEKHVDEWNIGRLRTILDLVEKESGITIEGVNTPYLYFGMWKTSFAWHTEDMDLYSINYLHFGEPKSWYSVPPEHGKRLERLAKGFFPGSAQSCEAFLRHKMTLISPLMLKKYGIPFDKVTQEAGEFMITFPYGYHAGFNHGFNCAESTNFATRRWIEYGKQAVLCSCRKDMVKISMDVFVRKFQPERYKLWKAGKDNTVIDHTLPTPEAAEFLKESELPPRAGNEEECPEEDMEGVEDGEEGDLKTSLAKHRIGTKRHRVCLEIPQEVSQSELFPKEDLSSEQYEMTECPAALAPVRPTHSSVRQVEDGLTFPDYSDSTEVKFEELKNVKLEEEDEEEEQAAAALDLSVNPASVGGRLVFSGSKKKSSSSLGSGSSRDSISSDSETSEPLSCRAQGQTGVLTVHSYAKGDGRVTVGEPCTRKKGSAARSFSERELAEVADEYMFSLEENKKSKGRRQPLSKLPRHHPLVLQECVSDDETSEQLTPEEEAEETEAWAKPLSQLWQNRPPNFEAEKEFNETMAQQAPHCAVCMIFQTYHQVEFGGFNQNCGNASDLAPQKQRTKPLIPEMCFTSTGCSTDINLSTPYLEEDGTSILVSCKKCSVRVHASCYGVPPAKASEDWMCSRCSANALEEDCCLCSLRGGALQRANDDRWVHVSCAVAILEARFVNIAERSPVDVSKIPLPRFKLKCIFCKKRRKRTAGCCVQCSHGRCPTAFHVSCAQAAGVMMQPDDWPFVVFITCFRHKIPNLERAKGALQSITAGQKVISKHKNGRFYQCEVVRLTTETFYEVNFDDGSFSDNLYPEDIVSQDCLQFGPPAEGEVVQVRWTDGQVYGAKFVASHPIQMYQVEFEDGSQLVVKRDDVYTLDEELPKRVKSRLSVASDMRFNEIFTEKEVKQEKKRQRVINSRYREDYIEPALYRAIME

Potency, inactive:
CCOc1cc(C2CC(=O)Nc3cc(C)c(C)cc32)ccc1O (configuration not stated)
O=C(CSC1=Nc2ccccc2C2=NC(Cc3ccccc3)C(=O)N12)Nc1cccc(Cl)c1 (configuration not stated)
CC(=O)N1CCN(c2ccc(NC(=O)c3ccc(Cl)cc3)cc2)CC1
COc1ccc(OC)c(C2CC(=O)Nc3c2c(=O)n(C)c2ncnn32)c1 (configuration not stated)
Cc1ccc(N(CC(=O)NC(C)(C)C)C(=O)CCC(=O)Nc2nccs2)c(C)c1
COc1ccc(NC(=O)CSC2=Nc3ccccc3C3=NC(CCC(=O)NC4CCCCC4)C(=O)N23)cc1Cl (configuration not stated)
CCc1c(C(=O)N/N=C/c2ccsc2)csc1C
O=C(O)CCC(=O)N1CCc2cc(S(=O)(=O)NCc3ccc(F)cc3)ccc21
Cc1cc(C)c2c(=O)[nH]c(SCC(=O)Nc3cccc(S(=O)(=O)N(C)C)c3)nc2n1
CCOCCc1nn2c(=O)cc(COC(=O)c3ccc(NC(=O)c4cccs4)cc3)nc2s1
CCCNC(=O)c1ccc(Cn2c(SCC(=O)NC(C)C)nc3ccccc3c2=O)cc1
COc1ccc(OCC(=O)Nc2ccc(OC)c(S(=O)(=O)N3CCCCC3)c2)cc1
C/C(=N/NC(=O)c1cccc(N2CCCC2=O)c1)c1ccncc1
COc1ccc(Cl)cc1NC(=O)c1nnn(CC(=O)Nc2ccc(C)c(C)c2)c1N
Cc1ccc2c(c1)c1c3n2CCN=C3CCC1
COc1ccc(NC(=O)CSc2nnc(C)c3ccccc23)cc1
O=C(Nc1ccc2oc(-c3cccnc3)nc2c1)c1ccccc1F
Cc1sc2nc(CSC(C)C(=O)Nc3ccc(Cl)cn3)[nH]c(=O)c2c1C (configuration not stated)
COc1ccc(C2CC(=O)CCN2S(=O)(=O)c2ccc(C)cc2)cc1 (configuration not stated)
Fc1ccccc1COc1ccc(Br)cc1CNCc1ccncc1
CCOC(=O)C1=NNC(C(=O)c2ccccc2)C1c1ccc(C)cc1 (configuration not stated)
Cc1cc2c(c(C)c1CCO[C@@H]1O[C@H](CO)[C@@H](O)[C@H](O)[C@H]1O)C(=O)[C@@H](C)[C@@H]2O
CC(C)(C)c1ccc(OCC(=O)NN2Cc3ccccc3C2=N)cc1
CSCC(=O)N1CCc2ccc(NC(=O)c3ccccc3Cl)cc2C1
COc1ccc(N2CCN(S(=O)(=O)c3ccc(OC)c(C(=O)N4CCOCC4)c3)CC2)cc1

Potency, inconclusive:
COc1ccc(CN(CCN)C2CC(C)N(C)CC2C)cc1 (configuration not stated) 89.1 µM [inhibitor, partial curve]
COc1ccc(-c2onc(C)c2C)cc1S(=O)(=O)NCCc1ccco1 50.1 µM [inhibitor, partial curve]
Cc1ccc(CNc2nc(C)cs2)cc1 63.1 µM [inhibitor, partial curve, poor fit]
CC(C)OC(=O)CCCNc1ccc([N+](=O)[O-])cc1[N+](=O)[O-] 56.2 µM [inhibitor, partial curve, poor fit]
O=C(N/N=C/c1ccccn1)c1cc(-c2cccc3ccccc23)n[nH]1 63.1 µM [inhibitor, partial curve]
COc1cccc(-c2c(-c3cc(OC)cc(OC)c3)n(C)c3ccc(-c4cnc(OC)nc4)cc23)c1 10 µM [inhibitor, full curve, poor fit]
COc1cc2nc(C3CCC3)n(NC(=O)C3CCC3)c(=O)c2cc1OC 39.8 µM [inhibitor, single point]
COc1cccc(C2c3[nH]c4ccccc4c3CCN2Cc2ncc[nH]2)c1 (configuration not stated) 50.1 µM [inhibitor, partial curve]
Cc1c(-n2c(-c3ccccc3Cl)n[nH]c2=S)c(=O)n(-c2ccccc2)n1C 35.5 µM [inhibitor, single point]
CSc1ccc(C2C(C#N)=C(N)Oc3cc4c(cc32)OCO4)cc1 (configuration not stated) 44.7 µM [inhibitor, partial curve]
CC(=O)N1CCC2(CC1)C/C(=N\NC(=S)Nc1ccccc1C)c1cc(O)ccc1O2 39.8 µM [inhibitor, partial curve]
COc1ccc(CN(C)C(=O)COC(=O)c2cc([N+](=O)[O-])ccc2N2CCCC2)c(OC)c1OC 20 µM [inhibitor, full curve, poor fit]
FC(F)(F)c1cccc(CN2CCC(c3cc(-c4cccs4)n[nH]3)CC2)c1 35.5 µM [inhibitor, partial curve]
CSc1nc(NCc2ccccc2)c2c3c(sc2n1)CN(C)CC3 50.1 µM [inhibitor, partial curve]
COc1ccc(-n2cc(-c3ccccc3)[nH]c2=S)c(OC)c1 44.7 µM [inhibitor, partial curve]
Cc1cc(C)n(-c2nc(NC(C)C)nc(NC(C)C)n2)n1 2.24 µM [inhibitor, full curve, poor fit] and 11.2 µM [inhibitor, partial curve]
CN1C(=O)CC(Nc2cccc3cccc(N)c23)C1=O (configuration not stated) 14.1 µM [inhibitor, full curve, poor fit]
Cc1cc(C(=O)CCl)c(C)n1Cc1ccco1 44.7 µM [inhibitor, partial curve]
CN(C)C(CNc1ncnc2sc3c(c12)CCCCC3)c1ccco1 (configuration not stated) 50.1 µM [inhibitor, partial curve]
COc1ccc(-c2[nH]c(-c3ccc(C)cc3)nc2SCC(=O)Nc2nccs2)cc1 39.8 µM [inhibitor, single point]
Fc1ccccc1-c1csc(=Nc2cccnc2)n1CC1CCCO1 (configuration not stated) 50.1 µM [inhibitor, partial curve]
COc1ccc(/C=C/C(=O)c2ccccc2O)cc1CN1CCOCC1 56.2 µM [inhibitor, partial curve]
Cc1ccc(OC(=O)c2cccc(S(=O)(=O)N3CCN(C)CC3)c2)c(Br)c1 50.1 µM [inhibitor, partial curve]
COc1ccccc1NC(=O)CSc1nnc(COc2ccc(Cl)cc2)n1Cc1ccco1 100 µM [inhibitor, partial curve, poor fit]
COc1ccc(N(CC(=O)N/N=C/c2ccco2)S(=O)(=O)c2ccccc2)cc1 63.1 µM [inhibitor, partial curve, poor fit]
COc1ccc(CC(=O)N2CCc3c([nH]c4ccccc34)C2c2ccc(SC)cc2)cc1 (configuration not stated) 39.8 µM [inhibitor, partial curve]
COc1ccc(-c2nc(SCC(=O)NC3CCCC3)c(-c3ccc(F)cc3)[nH]2)cc1OC 56.2 µM [inhibitor, partial curve]
Cc1ccc(-c2ccc(CCC(=O)O)n2NC(N)=S)cc1 39.8 µM [inhibitor, single point]
Cc1cc(/C=C(\C#N)C(=O)NCCc2c[nH]c3ccccc23)c(C)n1C 31.6 µM [inhibitor, partial curve]
COc1ccc2sc(-c3ccc(S(C)(=O)=O)cc3)c(C#Cc3cncn3C)c2c1 44.7 µM [inhibitor, full curve]
COc1ccc(/C=C2/SC(=S)N(NS(=O)(=O)c3ccccc3)C2=O)cc1 20 µM [inhibitor, full curve]
O=[N+]([O-])c1cc(-c2csc(NC(CO)c3nc4ccccc4n3CCOCCO)n2)ccc1Cl (configuration not stated) 50.1 µM [inhibitor, partial curve]
COc1ccc(C)cc1NC(=O)Cn1nc(N2CCN(c3ccccc3OC)CC2)ccc1=O 100 µM [inhibitor, partial curve, poor fit]
CCc1ccc(/C=C2/SC(=S)N(CC(=O)Nc3nc4ccccc4s3)C2=O)cc1 44.7 µM [inhibitor, partial curve]
CCOc1ccc(CCNC(=O)CN2C(=O)CCSc3ccccc32)cc1 39.8 µM [inhibitor, single point]

Potency, active:
O=C(Cn1ccnc1)c1ccc(O)c(O)c1 22.4 µM
O=C1Nc2ccccc2C(=O)C1(Cl)Cc1ccccc1 (configuration not stated) 50.1 µM
Cc1cccc(-n2c(C)cc(/C=N/NC(N)=S)c2C)c1 56.2 µM
O=[N+]([O-])c1ccc(S(=O)(=O)N2CCN(C3CCN(Cc4ccccc4)CC3)CC2)cc1 1.78 µM
COc1ccc(N2CCN(C(c3ccccc3OC)c3nnnn3C3CCCC3)CC2)cc1 (configuration not stated) 56.2 µM
CC/C(=C(\c1ccccc1)c1ccc(OCCN(C)C)cc1)c1ccccc1 56.2 µM and 44.7 µM
CC1CC(C)CN(CC(C)(C)NS(=O)(=O)c2ccccc2)C1 (configuration not stated) 22.4 µM
Cc1cc(Cl)cc(Br)c1OCCCCn1cncn1 3.55 µM
Cc1cccc(NC(=O)CCS(=O)(=O)c2cc3c(cc2Cl)NC(=O)CO3)c1 15.8 µM
Cc1cc(N=Nc2ccc(Cl)cc2)cc(CN2CCCC2)c1O 28.2 µM
COc1cc(CN(CCc2c(C)[nH]c3ccc(C)cc23)C(=S)NC(C)(C)C)cc(OC)c1OC 50.1 µM
O=C(NC(=S)Nc1ccccc1N1CCCC1)c1ccc(F)cc1 35.5 µM
